Results on 172 sequences are retold here after article PMC4242493.

The other results are listed elsewhere or left out. The list includes weakly bound sequences.

For the assay, the target named is MaxL homodimer (UniProt P61244). Nature of the assay: universal protein-binding microarray (PBM). The note with it: PBS-based mixture, 10 nM His-tagged protein dimer, 2% milk, 200 ng/uL BSA, 50 ng/uL salmon testes DNA, 0.02% TX-100; detection with Alexa 488 anti-His …; high values mean tight binding; most listed sequences are background and not binding sites; double strand, one strand shown.
UniProt P61244, sequence (P61244 whole entry): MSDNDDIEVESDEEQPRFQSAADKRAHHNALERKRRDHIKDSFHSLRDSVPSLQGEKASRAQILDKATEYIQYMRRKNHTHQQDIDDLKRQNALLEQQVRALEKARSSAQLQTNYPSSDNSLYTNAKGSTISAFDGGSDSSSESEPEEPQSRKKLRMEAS
For the sequence CAGCCGCA, the binding signal (normalized occupancy) was 0.0718.

With CACCTAAG, the binding signal (normalized occupancy) came to 0.0743. With CGGTTCAA the figure was 0.0686. With ACCAGGCG the figure was 0.0829. With CGTAGTTC the figure was 0.0706; with CGGAAGAC, 0.068; with CTATTTAC, 0.0763. Regarding AAGGCGTG, the binding signal (normalized occupancy) was determined as 0.0901. For GCACTTGA, the binding signal (normalized occupancy) is 0.073. With GCACTACC the figure was 0.0774; with ACGGTCAC, 0.0774. With ACGTGTCG the figure was 0.106.

In the case of CAGTTACA, the binding signal (normalized occupancy) amounted to 0.0725.

For AGTCGAGA, the binding signal (normalized occupancy) amounted to 0.071. Turning to CTTTATGA, the binding signal (normalized occupancy) is 0.0763. Consider AACAATGG, for which the binding signal (normalized occupancy) is 0.0787. With GGGGATAC, the binding signal (normalized occupancy) was 0.0797. With GACTGTCC the figure was 0.0743; with GGTGTAAA, 0.0851.

Consider CGTTAATA, for which the binding signal (normalized occupancy) is 0.0789. With TCTAGGAA the figure was 0.0765.

Turning to GACGTAGC, the binding signal (normalized occupancy) came out at 0.0744. With CATTTAGA the figure was 0.0764. With ATGGGCAA the figure was 0.0785; with GCCCATCA, 0.0786; with GCCTACGC, 0.0737. With TTGCCCAA the figure was 0.07. For the sequence ACCCTTCT, the binding signal (normalized occupancy) was 0.0744. With ATCCGTGG the figure was 0.078; with ATCGTACG, 0.0798; with CCATCCAA, 0.0825. With CAAAGCTA the figure was 0.07. With CGATGAGC the figure was 0.0714; with ACCGTTTC, 0.0728; with AGATTGCG, 0.0743.

On to GAAAAAGA, for which the binding signal (normalized occupancy) was 0.0746. With GTAATCTA the figure was 0.0799; with GTCGTCCA, 0.0757; with CCCAGGTC, 0.0779.

For AGCCACTC, the binding signal (normalized occupancy) is 0.0757. With ACGACATG the figure was 0.088; with AGGACAAC, 0.0727.

As for AAGGGACC, the binding signal (normalized occupancy) came out at 0.068. Regarding CTCTGTGC, the binding signal (normalized occupancy) worked out at 0.0769. With CATATGTC the figure was 0.0943; with AATTACCG, 0.0742. With AGGTCACG the figure was 0.082; with GCGGGGAA, 0.081.

With AAATCGGG, the binding signal (normalized occupancy) was 0.0734. With GAATTTGC the figure was 0.072; with ATGTCCCA, 0.0746.

As to AACGTTTC, the binding signal (normalized occupancy) came to 0.0739. With CTGGTTCC, the binding signal (normalized occupancy) was 0.072.

Turning to CTGGCGTC, the binding signal (normalized occupancy) was 0.0668. With GTAAGCAC the figure was 0.0777. With AAGAGGGG the figure was 0.0703; with GCGCTACC, 0.0751. With GTCCCGGA the figure was 0.0658; with CACACTTA, 0.0817; with AGTTCCTC, 0.0733. As for AAACTAGG, the binding signal (normalized occupancy) stood at 0.0774. With CTTAACAA the figure was 0.0707; with GATCCTCC, 0.0751; with CGTACCGC, 0.0699. With ACAACGGC the figure was 0.0735. With GTGTGCGA the figure was 0.082; with CACATCGA, 0.0843; with CCCCTCCA, 0.0846.

Take GCCTCCAA: the binding signal (normalized occupancy) was found to be 0.0672. Consider AATTAACA, for which the binding signal (normalized occupancy) worked out at 0.0755. With CGAGTCCG the figure was 0.0718; with AGATTCTA, 0.0793; with CCAAATAG, 0.0764. As to AACGATGT, the binding signal (normalized occupancy) is 0.0802.

For the sequence AGTAGCAT, the binding signal (normalized occupancy) was 0.0829. With ATGGTAAG the figure was 0.0773. With CGCTAACA the figure was 0.082; with AAGACCTC, 0.07; with CCATACCC, 0.081. With CCTTCTCA the figure was 0.0714; with TCGTGTCA, 0.0857. In the case of TATATAGA, the binding signal (normalized occupancy) is 0.0858.

With TCACAACA, the binding signal (normalized occupancy) worked out at 0.0812.

Consider GGGCATCA, for which the binding signal (normalized occupancy) was 0.0773. As to CCCAAAAC, the binding signal (normalized occupancy) worked out at 0.0732. Regarding CACAAGGG, the binding signal (normalized occupancy) came out at 0.0805. With CATATTCA the figure was 0.0822; with CTTAACTA, 0.078; with CCGATGCG, 0.0722.

Take AAGGGTTG: the binding signal (normalized occupancy) stood at 0.0757.

AGACAGCC: the binding signal (normalized occupancy) is 0.0719. With ATCGTCGG the figure was 0.0733. For the sequence AAGATATC, the binding signal (normalized occupancy) was 0.0763.

In the case of ACTACAAT, the binding signal (normalized occupancy) came to 0.0765. With AATAAGCC the figure was 0.0759. With AATTTCAG the figure was 0.0712; with AATACTCG, 0.0786; with CACTGGAC, 0.0711.

As to AATTCAAG, the binding signal (normalized occupancy) was determined as 0.0775. ATCTCCCC: the binding signal (normalized occupancy) came out at 0.0803. For the sequence CAGGTATC, the binding signal (normalized occupancy) worked out at 0.0811. With GATATCGA the figure was 0.0777. With GGAATACA the figure was 0.0768.

Take AGCACTAT: the binding signal (normalized occupancy) came out at 0.0773. With ATCTGATA the figure was 0.0812; with TACGGCAA, 0.0763. With AGCTACCG the figure was 0.07; with CAGAACAA, 0.0704. Turning to CGTTTGCC, the binding signal (normalized occupancy) was found to be 0.071. As for TGTCGGAA, the binding signal (normalized occupancy) amounted to 0.0763. With ACATTCCT the figure was 0.0765. With ACCCATCC the figure was 0.0838; with GTGTCTTA, 0.0793; with AACGTGCC, 0.096.

Consider CTCCGGTC, for which the binding signal (normalized occupancy) amounted to 0.0678. As to AGCAACGA, the binding signal (normalized occupancy) was determined as 0.0793. With ACATTGCC the figure was 0.076. For ACGAAGCC, the binding signal (normalized occupancy) was determined as 0.0735.

Consider CGGGAGAA, for which the binding signal (normalized occupancy) was determined as 0.0729.

Regarding TCGGCGCA, the binding signal (normalized occupancy) came out at 0.0734. In the case of AATCAGGA, the binding signal (normalized occupancy) came to 0.0732. With CAAAAATG the figure was 0.0779; with CTCCCACA, 0.0801; with TCAAAGCA, 0.0762.

CAGAACGG: the binding signal (normalized occupancy) was found to be 0.068. For GCAATGGC, the binding signal (normalized occupancy) is 0.0733. With CCCAGTAA the figure was 0.0749; with CTGGGGAC, 0.0698. With ACAGTTCT the figure was 0.0739; with GCAACGCA, 0.0727.

As for ACGTTTCA, the binding signal (normalized occupancy) is 0.0767. With GCCGCAAC the figure was 0.0694; with AGAGGCCA, 0.0702; with CTTGTACC, 0.0814. With AGTTATGG the figure was 0.0782; with AGTACAGG, 0.0787. With CGTTGAAA the figure was 0.071; with AAACGAAA, 0.0705; with GCGTATAA, 0.0755.

Consider AACGGTCA, for which the binding signal (normalized occupancy) is 0.074. With CAGACTTA the figure was 0.0717; with GATTCACA, 0.0773; with AAGTTTAG, 0.0702. With GACACGAC the figure was 0.0866; with ACCGTGTC, 0.072. With GATCAGCC the figure was 0.0736; with GTGATCAC, 0.0914. On to GTCTTCCA, for which the binding signal (normalized occupancy) amounted to 0.0718. With AACGGTTG the figure was 0.0768. With ACAAGGCG the figure was 0.0714; with CAAGTTGC, 0.0745; with ATACATTC, 0.093.

With GCTTCTTA, the binding signal (normalized occupancy) came out at 0.0746. With TAAGATTA the figure was 0.0724; with AATACGGA, 0.0711; with ACGCGGCA, 0.0795.

Take CCTGAGGA: the binding signal (normalized occupancy) worked out at 0.0743. With CCTACACG the figure was 0.0847; with CGTGCCAA, 0.0821; with CCCAACGA, 0.0762.

As for CCCGAGCC, the binding signal (normalized occupancy) is 0.0666.

As for ACTAGATA, the binding signal (normalized occupancy) turned out to be 0.0744. With CACGCCGC the figure was 0.0912. With AGTATGGA the figure was 0.0756; with CATGGAAA, 0.0895; with ATGGTTGA, 0.0815. With CGGTTAGA the figure was 0.0696. In the case of GGATGAAC, the binding signal (normalized occupancy) was 0.0721. With CCGGATCG the figure was 0.0706. With GCTAGAAC the figure was 0.0705.

Turning to GTAATATA, the binding signal (normalized occupancy) turned out to be 0.081. As for AAATTCAC, the binding signal (normalized occupancy) is 0.0767.
